One experiment has as its system HSkMC. Put plainly: cytotoxicity call (relative viability < 0.9). To be noted: 10 µM.
The next experiment relates to HepG2. Kind of experiment: cytotoxicity call (relative viability < 0.9). Conditions: 10 µM.
For another experiment, the system named is S. aureus RN4220. Kind of experiment: growth inhibition call (relative growth <= 0.2). Conditions: 50 µM.

This is one part of the list.

Data on 28 molecules can be found in the antibiotic and cytotoxicity screens of Wong et al. (2023).

With `COC(=O)C=Cc1cc(OC)c(OC)c(OC)c1`, the cytotoxicity call in the experiment on HSkMC and with HepG2 was “inactive” each time. Further, the growth inhibition call in the experiment on S. aureus RN4220 was “inactive”.

In the case of `COCCOC(=O)N1C(=O)[C@@]2(c3cc(C#CCC(C(=O)OC)C(=O)OC)ccc31)[C@H](c1ccc(OCCO)cc1)N1[C@H](c3ccccc3)[C@H](c3ccccc3)OC(=O)[C@H]1[C@@H]2C(=O)N1CCc2cc(OC)c(OC)cc2C1`, the cytotoxicity call with HSkMC and in the experiment on HepG2 was “inactive” in each case. The growth inhibition call with S. aureus RN4220 was “inactive”.

Regarding `COCCCN(C[C@]1(O)CC[C@H]2C3=CC=C4C[C@@H](O)CC[C@]4(C)[C@@H]3CC[C@@]21C)C(=O)O[C@H]1C[C@@H](C)CC[C@@H]1C(C)C`, the cytotoxicity call in the experiment with HSkMC and in the experiment with HepG2 was “inactive” in each case. Also, in the experiment with S. aureus RN4220, the growth inhibition call was “inactive”.

Take `Cc1ccc(S(=O)(=O)Nc2ccc3c(c2)C(=O)N([C@@H](C)CO)C[C@H](C)[C@@H](CN(C)Cc2ccc(C(F)(F)F)cc2)O3)cc1`: the cytotoxicity call with HSkMC and with HepG2 was “inactive” in each case. The growth inhibition call in the experiment on S. aureus RN4220 was “inactive”.

Regarding `COc1ccc(NC(=O)Nc2ccc3c(c2)C(=O)N([C@H](C)CO)C[C@H](C)[C@@H](CN(C)CC2CCCCC2)O3)cc1`, the cytotoxicity call in the experiment with HSkMC and in the experiment with HepG2 was “inactive” in each case. In addition, the growth inhibition call with S. aureus RN4220 is “inactive”.

As for `Cc1noc(C)c1NC(=O)N(C)C[C@@H]1OCCCC[C@@H](C)Oc2ccc(NS(=O)(=O)c3ccc(Cl)cc3)cc2C(=O)N([C@H](C)CO)C[C@H]1C`, the cytotoxicity call in the experiment with HSkMC and in the experiment on HepG2 was “inactive” in each case. In addition, the growth inhibition call in the experiment on S. aureus RN4220 was “inactive”.

In the case of `C[C@@H]1CCCCO[C@H](CN(C)CC2CC2)[C@@H](C)CN([C@H](C)CO)C(=O)c2cc(NS(=O)(=O)c3cn(C)cn3)ccc2O1`, the cytotoxicity call with HSkMC and in the experiment on HepG2 was “inactive” each time. The growth inhibition call with S. aureus RN4220 was “inactive”.

`C[C@@H]1CN([C@@H](C)CO)C(=O)c2c(c3ccccc3n2C)-c2ccccc2CO[C@H]1CN(C)Cc1ccccc1C(F)(F)F`: the cytotoxicity call in the experiment on HSkMC was “active”. In addition, the cytotoxicity call with HepG2 was “inactive”. Also, the growth inhibition call in the experiment on S. aureus RN4220 was “inactive”.

In the case of `C[C@H](CO)N1C[C@H](C)[C@@H](CN(C)C(=O)NC2CCCCC2)OCCCC[C@H](C)Oc2ccc(NC(=O)c3ccccc3)cc2C1=O`, the cytotoxicity call with HSkMC was “inactive”. The cytotoxicity call with HepG2 is “active”. In the experiment with S. aureus RN4220, the growth inhibition call was “inactive”.

For the molecule `COc1ccc(CN(C)C[C@H]2OCCCC[C@H](C)Oc3ccc(NC(=O)Nc4ccccc4)cc3C(=O)N([C@@H](C)CO)C[C@H]2C)cc1`, the cytotoxicity call in the experiment on HSkMC and in the experiment with HepG2 was “inactive” throughout. The growth inhibition call in the experiment with S. aureus RN4220 is “inactive”.

With `Cc1ccc(S(=O)(=O)Nc2ccc3c(c2)CC(=O)N([C@@H](C)CO)C[C@H](C)[C@H](CN(C)Cc2ccncc2)O3)cc1`, the cytotoxicity call with HSkMC and with HepG2 was “inactive” throughout. Further, in the experiment with S. aureus RN4220, the growth inhibition call was “inactive”.

Regarding `COc1ccc(C#Cc2ccc3c(c2)O[C@H](CN(C)C(=O)c2ccccn2)[C@@H](C)CN([C@H](C)CO)S3(=O)=O)cc1`, the cytotoxicity call in the experiment on HSkMC and in the experiment on HepG2 was “inactive” throughout. Also, in the experiment on S. aureus RN4220, the growth inhibition call is “inactive”.

Take `C[C@H](CO)N1C[C@H](C)[C@@H](CN(C)Cc2ccc(-c3ccccc3)cc2)Oc2c(NC(=O)Nc3ccc(C(F)(F)F)cc3)cccc2C1=O`: the cytotoxicity call in the experiment with HSkMC and in the experiment on HepG2 was “inactive” in each case. Also, in the experiment with S. aureus RN4220, the growth inhibition call was “inactive”.

Turning to `C[C@@H]1CN([C@@H](C)CO)C(=O)Cc2cc(NS(=O)(=O)c3cccs3)ccc2O[C@H]1CN(C)Cc1ccc(Oc2ccccc2)cc1`, the cytotoxicity call in the experiment with HSkMC and with HepG2 was “inactive” throughout. In addition, the growth inhibition call in the experiment on S. aureus RN4220 was “inactive”.

As for `COC(=O)[C@@H]1C(=O)NC[C@H]1c1ccccc1`, the cytotoxicity call with HSkMC and with HepG2 was “inactive” in each case. Besides, in the experiment on S. aureus RN4220, the growth inhibition call is “inactive”.

As to `C[C@H](CO)N1C[C@H](C)[C@H](CN(C)S(=O)(=O)c2ccc(F)cc2)Oc2c(NC(=O)C3CCOCC3)cccc2C1=O`, the cytotoxicity call with HSkMC and in the experiment with HepG2 was “inactive” in each case. The growth inhibition call in the experiment on S. aureus RN4220 was “inactive”.

In the case of `NCCc1cc2nc(-c3ccncc3)ccn2n1`, the cytotoxicity call in the experiment with HSkMC and in the experiment with HepG2 was “inactive” each time. The growth inhibition call in the experiment on S. aureus RN4220 was “inactive”.

Turning to `C[C@H](CO)N1C[C@H](C)[C@@H](CN(C)C(=O)CN(C)C)Oc2ncc(C#CC(C)(C)O)cc2C1=O`, the cytotoxicity call in the experiment with HSkMC and with HepG2 was “inactive” throughout. Besides, in the experiment with S. aureus RN4220, the growth inhibition call was “inactive”.

In the case of `C[C@H](CO)N1C[C@H](C)[C@H](CN(C)S(=O)(=O)c2ccc(F)cc2)Oc2c(NC(=O)Nc3cccc4ccccc34)cccc2C1=O`, in the experiment on HSkMC, the cytotoxicity call is “active”. In the experiment on HepG2, the cytotoxicity call is “inactive”. Besides, in the experiment on S. aureus RN4220, the growth inhibition call is “inactive”.

For `CCCNC(=O)C[C@H]1CC[C@@H]2[C@H](COc3ccc(NC(=O)c4ccc5c(c4)OCO5)cc3C(=O)N2C)O1`, the cytotoxicity call in the experiment with HSkMC and in the experiment on HepG2 was “inactive” throughout. For the same molecule, the growth inhibition call in the experiment on S. aureus RN4220 was “inactive”.

Consider `CCc1nc2ccc(C(=O)Nc3ccc(OC)c(OC)c3)cn2c1N(CC)Cc1cccc(Br)c1`, for which the cytotoxicity call with HSkMC and in the experiment with HepG2 was “inactive” each time. In addition, the growth inhibition call in the experiment on S. aureus RN4220 is “inactive”.

On to `CC(C)Oc1ccccc1OCc1cnnn1CC(=O)NS(=O)(=O)c1ccccc1OC(F)(F)F`, for which the cytotoxicity call in the experiment with HSkMC and in the experiment on HepG2 was “inactive” each time. Also, the growth inhibition call in the experiment on S. aureus RN4220 was “inactive”.

In the case of `COc1cc(O)c(C(=O)c2ccccc2)cc1S(=O)(=O)O`, the cytotoxicity call in the experiment on HSkMC and in the experiment with HepG2 was “inactive” throughout. Moreover, the growth inhibition call in the experiment on S. aureus RN4220 is “inactive”.

Take `C[C@@H]1CN([C@@H](C)CO)C(=O)c2cc(NC(=O)CCCN(C)C)ccc2O[C@H]1CN(C)S(=O)(=O)c1ccc(F)cc1`: the cytotoxicity call with HSkMC and in the experiment on HepG2 was “inactive” in each case. Further, the growth inhibition call with S. aureus RN4220 is “inactive”.

As to `C[C@H](CO)N1C[C@H](C)[C@H](CN(C)Cc2ccncc2)OCCCC[C@H](C)Oc2ccc(NC(=O)NC3CCCCC3)cc2C1=O`, the cytotoxicity call in the experiment on HSkMC (human skeletal muscle cells) and in the experiment with HepG2 was “inactive” throughout. The growth inhibition call in the experiment with S. aureus RN4220 is “inactive”.

As for `NCCCCNCCCN`, the cytotoxicity call in the experiment with HSkMC and in the experiment on HepG2 was “inactive” in each case. Moreover, the growth inhibition call in the experiment on S. aureus RN4220 is “inactive”.

Turning to `CC(C)NC(=O)Nc1ccc2c(c1)C(=O)N([C@@H](C)CO)C[C@H](C)[C@H](CN(C)C(=O)Nc1ccc(F)cc1)OCCCC[C@@H](C)O2`, the cytotoxicity call with HSkMC and with HepG2 was “inactive” each time. In addition, the growth inhibition call in the experiment with S. aureus RN4220 is “inactive”.

`C=C1CC23CC1(O)CCC2C12C=CC(O)C(C)(C(=O)O1)C2C3C(=O)O` (centres undefined): the cytotoxicity call with HSkMC and in the experiment on HepG2 was “inactive” in each case. For the same molecule, in the experiment on S. aureus RN4220, the growth inhibition call is “inactive”.
